According to publication PMC4237671 (Anesthesiology, 2014):

Test: Pharmacokinetics after single bolus followed by 2-h infusion
Settings: n = 4 dogs

| Compound | Plasma concentration immediately before the infusion ended | Plasma concentration 300 min after the infusion ended [µg/mL] | Plasma concentration 30 min after the infusion ended [µg/mL] | Plasma concentration 60 min after the infusion ended [µg/mL] | Cmax (parent drug) | t1/2 (parent drug) [h] |
| --- | --- | --- | --- | --- | --- | --- |
| CC(c1ccccc1)n1cncc1C(=O)O (stereo not drawn) [Etomidate Metabolite] | 1,680 ± 250 ng/ml |  |  |  |  |  |
| CCOC(=O)c1cncn1[C@H](C)c1ccccc1 [Etomidate, reference compound] | 2,050 ± 1,090 ng/ml | 0.037 ± 0.024 |  |  |  |  |
| cyclopropyl-methoxycarbonyl metomidate [CPMM] | 3,310 ± 740 ng/ml | 0.015 ± 0.012 | 0.103 ± 0.056 | 0.081 ± 0.027 | 3,310 ± 740 ng/ml | 1.61 ± 0.642 |
